The values that follow come from a collection of fitness landscapes (doi:10.1126/science.1257360).

B1: PhoQ; a variant is named by its letters at X, in order, P23837 (parent)
chain: MKKLLRLFFPLSLRVRFLLATAAVVLVLSLAYGMVALIGYSVSFDKTTFRLLRGESNLFYTLAKWENNKLHVELPENIDKQSPTMTLIYDENGQLLWAQRDVPWLMKMIQPDWLKSNGFHEIEADVNDTSLLLSGDHSIQQQLQEVREDDDDAEMTHSVAVNVYPATSRMPKLTIVVVDTIPVELKSSYMVWSWFIYVLSANLLLVIPLLWVAAWWSLRPIEALAKEVRELEEHNRELLNPATTRELTSLVRNLNRLLKSERERYDKYRTTLTDLTHSLKTPLXXLQXXLRSLRSEKMSVSDAEPVMLEQISRISQQIGYYLHRASMRGGTLLSRELHPVAPLLDNLTSALNKVYQRKGVNISLDISPEISFVGEQNDFVEVMGNVLDNACKYCLEFVEISARQTDEHLYIVVEDDGPGIPLSKREVIFDRGQRVDTLRPGQGVGLAVAREITEQYEGKIVAGESMLGGARMEVIFGRQHSAPKDE

The other results are listed elsewhere or left out. Some results are limits rather than exact numbers.

This test covers variants of B1. Kind of test: enrichment ratio after two sorts for PhoP signalling (ratio (wild type AVST 3.29)); higher = more functional. To be noted: with PhoP (E. coli).
As for MTTA, the enrichment ratio is at most 0.25.

ITWM: the enrichment ratio is at most 0.25. In the case of WGWN, the enrichment ratio is at most 0.25. In the case of AINF, the enrichment ratio was determined as 1.66. Regarding RRWM, the enrichment ratio was at most 0.25.

For KSFV, the enrichment ratio is at most 0.25. In the case of FNDN, the enrichment ratio is at most 0.25.

Regarding QFSW, the enrichment ratio is at most 0.25. For the variant RPIR, the enrichment ratio was at most 0.25.

DKGI: the enrichment ratio is at most 0.25. As for QHKI, the enrichment ratio is at most 0.25. Consider MPDE, for which the enrichment ratio came to 1.25. For EKMM, the enrichment ratio is at most 0.25. As to SHAR, the enrichment ratio is at most 0.25. For the variant GFNG, the enrichment ratio was at most 0.25. For the variant NHRN, the enrichment ratio was at most 0.25.

For the variant HNFG, the enrichment ratio is at most 0.25. Consider DINC, for which the enrichment ratio was at most 0.25. For QSIY, the enrichment ratio is at most 0.25. Consider RNSD, for which the enrichment ratio is at most 0.25. Next, ATDH: at most 0.25.

As for MSRY, the enrichment ratio was at most 0.25. Turning to MTCQ, the enrichment ratio was at most 0.25. Turning to RRFT, the enrichment ratio was at most 0.25. Next, FLKW: at most 0.25; YFRS: at most 0.25; VKPL: at most 0.25. For the variant KFMH, the enrichment ratio is at most 0.25. On to SQHV, for which the enrichment ratio is at most 0.25. On to GWAC, for which the enrichment ratio is at most 0.25. In the case of LKNF, the enrichment ratio was at most 0.25. With ATFP, the enrichment ratio is at most 0.25. As to LQNA, the enrichment ratio is at most 0.25. As to NFHC, the enrichment ratio is at most 0.25. With NGYF, the enrichment ratio was at most 0.25. As to VHVF, the enrichment ratio is at most 0.25. Turning to ITWP, the enrichment ratio was at most 0.25. Next, CCMQ: 6.53. With PGNP, the enrichment ratio is at most 0.25.

As to WNRR, the enrichment ratio is at most 0.25.

Turning to LVHT, the enrichment ratio is at most 0.25. For the variant MPPK, the enrichment ratio was at most 0.25. For QPLH, the enrichment ratio is at most 0.25.

For the variant QDMN, the enrichment ratio was at most 0.25. For the variant KITM, the enrichment ratio is at most 0.25.

With NNLL, the enrichment ratio is 4.63. Regarding GIQR, the enrichment ratio is at most 0.25. As for ERFQ, the enrichment ratio was at most 0.25. For the variant GDQL, the enrichment ratio is at most 0.25. Next, DMFT: at most 0.25; PKCG: at most 0.25. Consider TSWH, for which the enrichment ratio came to 9.44. As to TWLA, the enrichment ratio was at most 0.25.

Regarding WWPV, the enrichment ratio was at most 0.25. For FIWE, the enrichment ratio is 2.83.

Regarding FINI, the enrichment ratio was at most 0.25. QVVM: the enrichment ratio was at most 0.25. On to ETCF, for which the enrichment ratio is at most 0.25.

As for WECN, the enrichment ratio is at most 0.25. For the variant PLSI, the enrichment ratio was determined as 0.275. In the case of RIQV, the enrichment ratio is 2.38.

Regarding DGIL, the enrichment ratio is at most 0.25.

Consider KMKG, for which the enrichment ratio is at most 0.25. Next, NCLT: at most 0.25; SNCC: 14.7; ILCH: at most 0.25. Turning to VFAC, the enrichment ratio is at most 0.25. Under QPVY stands at most 0.25; under AVGM, 3.94.

In the case of FCRR, the enrichment ratio is at most 0.25. Regarding IWEN, the enrichment ratio is at most 0.25. Under NDNQ stands at most 0.25; under WEVA, at most 0.25; under TWGA, at most 0.25. Take DMAQ: the enrichment ratio is at most 0.25. For WYNL, the enrichment ratio was at most 0.25.

As to KGGW, the enrichment ratio was at most 0.25. As to YKFC, the enrichment ratio was at most 0.25. As for IHVQ, the enrichment ratio was at most 0.25.

In the case of YPGN, the enrichment ratio is at most 0.25. In the case of EKVV, the enrichment ratio was at most 0.25. On to ERTR, for which the enrichment ratio was at most 0.25.

Regarding VSFK, the enrichment ratio was at most 0.25. With FRRK, the enrichment ratio was at most 0.25. As for GLPH, the enrichment ratio is at most 0.25. In the case of IDSV, the enrichment ratio was at most 0.25. Next, IDHT: at most 0.25; PWQV: at most 0.25.

Consider VPRV, for which the enrichment ratio is at most 0.25. Consider EQDN, for which the enrichment ratio was at most 0.25. On to RRPT, for which the enrichment ratio is at most 0.25. Consider DYKE, for which the enrichment ratio is at most 0.25.

With FTPK, the enrichment ratio was at most 0.25. NERK: the enrichment ratio is at most 0.25. For the variant LAIK, the enrichment ratio is at most 0.25. Take EPPG: the enrichment ratio is at most 0.25. As for DCWW, the enrichment ratio is at most 0.25. On to PPNR, for which the enrichment ratio is at most 0.25.

Take FPYF: the enrichment ratio was at most 0.25. Take ALAS: the enrichment ratio was 1.58. As to IKKW, the enrichment ratio is at most 0.25. As for PETG, the enrichment ratio is at most 0.25. As to GSCE, the enrichment ratio came to 3.02. On to AQTE, for which the enrichment ratio is at most 0.25. For the variant YAVA, the enrichment ratio is at most 0.25. In the case of VTAM, the enrichment ratio turned out to be 4.58.

Consider KWLH, for which the enrichment ratio is at most 0.25. Consider NIGN, for which the enrichment ratio is at most 0.25. Next, FKWR: at most 0.25. In the case of ELQD, the enrichment ratio was at most 0.25. NYTY: the enrichment ratio was at most 0.25. In the case of CHLY, the enrichment ratio was at most 0.25. With DFRG, the enrichment ratio worked out at 0.676. With TRMQ, the enrichment ratio was at most 0.25. As to RFWQ, the enrichment ratio was at most 0.25. As to IIFR, the enrichment ratio was at most 0.25. With AGKC, the enrichment ratio is at most 0.25. For the variant HECP, the enrichment ratio was at most 0.25. Next, TMHT: at most 0.25; FQWP: at most 0.25. Regarding SSYC, the enrichment ratio is at most 0.25.

Take TYSC: the enrichment ratio worked out at 5.02.

For the variant NECH, the enrichment ratio was 18. For the variant ESKT, the enrichment ratio was at most 0.25.

Take SEMP: the enrichment ratio is at most 0.25. For the variant VKCT, the enrichment ratio is at most 0.25. Take TFEW: the enrichment ratio is at most 0.25. Next, DIRY: at most 0.25; PQMP: at most 0.25; RSCV: at most 0.25. Under KLQV stands at most 0.25. In the case of FEIN, the enrichment ratio is at most 0.25. As to IEWT, the enrichment ratio is at most 0.25. For the variant TKLV, the enrichment ratio came out at 23.3. Regarding GMYG, the enrichment ratio was at most 0.25. As to KMSI, the enrichment ratio is at most 0.25. Under PMND stands at most 0.25; under SNVC, 11.5. In the case of YISP, the enrichment ratio was at most 0.25.

For the variant SEQP, the enrichment ratio is at most 0.25.

WDYM: the enrichment ratio is at most 0.25.

Take MVQP: the enrichment ratio is at most 0.25. In the case of RIFI, the enrichment ratio is at most 0.25. Next, KIFI: at most 0.25; HKAF: at most 0.25. Consider ISYH, for which the enrichment ratio is at most 0.25. With YDCQ, the enrichment ratio was at most 0.25.

For the variant KQVS, the enrichment ratio is at most 0.25. Consider RFRD, for which the enrichment ratio was at most 0.25. With YPVN, the enrichment ratio is at most 0.25. On to FTAR, for which the enrichment ratio is at most 0.25. With RDWC, the enrichment ratio is at most 0.25.

Turning to ALQG, the enrichment ratio is at most 0.25.
